# The list shows a part of the results.
# B1: XL-35 (Xenopus laevis) (protein)
# chain: MLVHILLLLVTGGLSQSCDPVVIVASKNMVKQLDCDKFRNCKEIKDSNEEAQDGIYTLTSPDGISYQTFCDMTTNGGGWTLVASVHENNMAGKCTIGDRWSSQQGNRADYPEGDGNWANYNTFGSAGGATSDDYKNPGYYDIEAYNLGVWHVPNKTPLSVWRNSSLQRYRTTDGILFKHGGNLFSLYRIYPVKYGIGSCSKDSGPTVPVVYDLGSANLTASFYSPGFRSQFTPGYIQFRPINTEKAALALCPGMKMESCNVEHVCIGGGGYFPEADPRQCGDFAAYDFNGYGTKKFNSAGIEITEAAVLLFYL
# Legend:
# Assay in all cases: glycan array binding signal (z-score within array); higher = stronger binding
# Conditions in all cases: glycan notation: IUPAC condensed, linker removed
# [1] = target: Gal(a1-3)Gal(b1-4)GlcNAc(b1-6)GalNAc
# Procedure, shortened: (§1)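 Glycan array binding is given as a within-array Z-score, which can be read as non-binding when negative. The arrays, 3228 of them, came from the Consortium for Functional Glycomics database and were retained only where the protein sequence was available. Z-scores were averaged across arrays of the same protein sequence at different concentrations or buffers and across linkers.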
# [2] = target: Gal(a1-3)Gal(b1-4)[Fuc(a1-3)]GalNAc
# Procedure, shortened: as §1
# [3] = target: Gal(a1-3)Gal(b1-4)[Fuc(a1-3)]GlcNAc
# Procedure, shortened: as §1
# [4] = target: Gal(a1-3)Gal(b1-4)[Fuc(a1-3)]GlcNAc(b1-2)Man(a1-3)[Gal(a1-3)Gal(b1-4)[Fuc(a1-3)]GlcNAc(b1-2)Man(a1-6)]Man(b1-4)GlcNAc(b1-4)GlcNAc
# Procedure, shortened: as §1
# Gal(a1-3)GalNAc = target: Gal(a1-3)GalNAc
# Procedure, shortened: as §1
# Gal(a1-3)GlcNAc = target: Gal(a1-3)GlcNAc
# Procedure, shortened: as §1
# [5] = target: Gal(a1-3)[Gal(a1-4)]Gal(b1-4)GlcNAc
# Procedure, shortened: as §1
# [6] = target: Gal(a1-4)Gal(b1-3)GlcNAc(b1-2)Man(a1-3)[Gal(a1-4)Gal(b1-3)GlcNAc(b1-2)Man(a1-6)]Man(b1-4)GlcNAc(b1-4)GlcNAc
# Procedure, shortened: as §1
# Gal(a1-4)Gal(b1-4)Gal = target: Gal(a1-4)Gal(b1-4)Gal
# Procedure, shortened: as §1
# Gal(a1-4)Gal(b1-4)GalNAc = target: Gal(a1-4)Gal(b1-4)GalNAc
# Procedure, shortened: as §1
# Gal(a1-4)Gal(b1-4)Glc = target: Gal(a1-4)Gal(b1-4)Glc
# Procedure, shortened: as §1
# Gal(a1-4)Gal(b1-4)GlcNAc = target: Gal(a1-4)Gal(b1-4)GlcNAc
# Procedure, shortened: as §1
# [7] = target: Gal(a1-4)Gal(b1-4)GlcNAc(b1-2)Man(a1-3)[Gal(a1-4)Gal(b1-4)GlcNAc(b1-2)Man(a1-6)]Man(b1-4)GlcNAc(b1-4)GlcNAc
# Procedure, shortened: as §1
# [8] = target: Gal(a1-4)Gal(b1-4)GlcNAc(b1-3)Gal(b1-4)Glc
# Procedure, shortened: as §1
# Gal(a1-4)GlcNAc = target: Gal(a1-4)GlcNAc
# Procedure, shortened: as §1
# Gal(a1-6)Glc = target: Gal(a1-6)Glc
# Procedure, shortened: as §1
# Gal(b1-2)Gal = target: Gal(b1-2)Gal
# Procedure, shortened: as §1
# Gal(b1-3)Gal = target: Gal(b1-3)Gal
# Procedure, shortened: as §1
# Gal(b1-3)Gal(b1-4)GlcNAc = target: Gal(b1-3)Gal(b1-4)GlcNAc
# Procedure, shortened: as §1
# Gal(b1-3)GalNAc = target: Gal(b1-3)GalNAc
# Procedure, shortened: as §1
# [9] = target: Gal(b1-3)GalNAc(a1-3)[Fuc(a1-2)]Gal(b1-4)Glc
# Procedure, shortened: as §1
# [10] = target: Gal(b1-3)GalNAc(a1-3)[Fuc(a1-2)]Gal(b1-4)GlcNAc
# Procedure, shortened: as §1
# Gal(b1-3)GalNAc(b1-3)Gal = target: Gal(b1-3)GalNAc(b1-3)Gal
# Procedure, shortened: as §1
# [11] = target: Gal(b1-3)GalNAc(b1-3)Gal(a1-4)Gal(b1-4)Glc
# Procedure, shortened: as §1
# [12] = target: Gal(b1-3)GalNAc(b1-3)Gal(b1-4)Glc
# Procedure, shortened: as §1
# [13] = target: Gal(b1-3)GalNAc(b1-3)Gal(b1-4)GlcNAc
# Procedure, shortened: as §1
# [14] = target: Gal(b1-3)GalNAc(b1-4)Gal(b1-4)Glc
# Procedure, shortened: as §1
# [15] = target: Gal(b1-3)GalNAc(b1-4)[Neu5Ac(a2-3)]Gal(b1-4)Glc
# Procedure, shortened: as §1
# Gal(b1-3)GlcNAc = target: Gal(b1-3)GlcNAc
# Procedure, shortened: as §1
# [16] = target: Gal(b1-3)GlcNAc(a1-3)Gal(b1-4)GlcNAc
# Procedure, shortened: as §1
# [17] = target: Gal(b1-3)GlcNAc(a1-6)Gal(b1-4)GlcNAc
# Procedure, shortened: as §1
# Gal(b1-3)GlcNAc(b1-2)Man = target: Gal(b1-3)GlcNAc(b1-2)Man
# Procedure, shortened: as §1
# [18] = target: Gal(b1-3)GlcNAc(b1-2)Man(a1-3)[Gal(b1-3)GlcNAc(b1-2)Man(a1-6)]Man(b1-4)GlcNAc(b1-4)GlcNAc
# Procedure, shortened: as §1
# [19] = target: Gal(b1-3)GlcNAc(b1-2)Man(a1-3)[Gal(b1-3)GlcNAc(b1-2)Man(a1-6)]Man(b1-4)GlcNAc(b1-4)[Fuc(a1-6)]GlcNAc
# Procedure, shortened: as §1
# [20] = target: Gal(b1-3)GlcNAc(b1-2)Man(a1-3)[GlcNAc(b1-4)][Gal(b1-3)GlcNAc(b1-2)Man(a1-6)]Man(b1-4)GlcNAc(b1-4)GlcNAc
# Procedure, shortened: as §1
# [21] = target: Gal(b1-3)GlcNAc(b1-2)[Gal(b1-3)GlcNAc(b1-6)]Man(a1-6)[Gal(b1-3)GlcNAc(b1-2)Man(a1-3)]Man(b1-4)GlcNAc(b1-4)GlcNAc
# Procedure, shortened: as §1
# [22] = target: Gal(b1-3)GlcNAc(b1-3)Gal(b1-3)GlcNAc
# Procedure, shortened: as §1
binder,measurement,setting,value
B1,glycan array binding signal (z-score),[1],-0.545
same,glycan array binding signal (z-score),[2],-0.09
same,glycan array binding signal (z-score),[3],0.411
same,glycan array binding signal (z-score),[4],-0.299
same,glycan array binding signal (z-score),Gal(a1-3)GalNAc,-0.122
same,glycan array binding signal (z-score),Gal(a1-3)GlcNAc,15.9
same,glycan array binding signal (z-score),[5],0.307
same,glycan array binding signal (z-score),[6],0.019
same,glycan array binding signal (z-score),Gal(a1-4)Gal(b1-4)Gal,-0.113
same,glycan array binding signal (z-score),Gal(a1-4)Gal(b1-4)GalNAc,-0.077
same,glycan array binding signal (z-score),Gal(a1-4)Gal(b1-4)Glc,0.585
same,glycan array binding signal (z-score),Gal(a1-4)Gal(b1-4)GlcNAc,0.242
same,glycan array binding signal (z-score),[7],0.247
same,glycan array binding signal (z-score),[8],-0.416
same,glycan array binding signal (z-score),Gal(a1-4)GlcNAc,-0.192
same,glycan array binding signal (z-score),Gal(a1-6)Glc,-0.06
same,glycan array binding signal (z-score),Gal(b1-2)Gal,-0.11
same,glycan array binding signal (z-score),Gal(b1-3)Gal,-0.213
same,glycan array binding signal (z-score),Gal(b1-3)Gal(b1-4)GlcNAc,0.041
same,glycan array binding signal (z-score),Gal(b1-3)GalNAc,-0.037
same,glycan array binding signal (z-score),[9],-0.227
same,glycan array binding signal (z-score),[10],-0.337
same,glycan array binding signal (z-score),Gal(b1-3)GalNAc(b1-3)Gal,-0.281
same,glycan array binding signal (z-score),[11],-0.2
same,glycan array binding signal (z-score),[12],-0.066
same,glycan array binding signal (z-score),[13],-0.143
same,glycan array binding signal (z-score),[14],-0.037
same,glycan array binding signal (z-score),[15],0.241
same,glycan array binding signal (z-score),Gal(b1-3)GlcNAc,-0.254
same,glycan array binding signal (z-score),[16],-0.448
same,glycan array binding signal (z-score),[17],-0.171
same,glycan array binding signal (z-score),Gal(b1-3)GlcNAc(b1-2)Man,-0.096
same,glycan array binding signal (z-score),[18],-0.375
same,glycan array binding signal (z-score),[19],0.327
same,glycan array binding signal (z-score),[20],-0.211
same,glycan array binding signal (z-score),[21],0.027
same,glycan array binding signal (z-score),[22],-0.035

# Source: the supplement of paper PMC8728848
